This is an account of results in publication PMC5397172 (Nucleic Acids Research, 2016).

The target of the experiment is His-p65-N (a.a.1–340) (UniProt Q04206 1-340). In words: native gel or EMSA. In general terms: Mobility shift assays separate free from complexed probe on a gel.
Sequence of UniProt Q04206 (Q04206 1-340): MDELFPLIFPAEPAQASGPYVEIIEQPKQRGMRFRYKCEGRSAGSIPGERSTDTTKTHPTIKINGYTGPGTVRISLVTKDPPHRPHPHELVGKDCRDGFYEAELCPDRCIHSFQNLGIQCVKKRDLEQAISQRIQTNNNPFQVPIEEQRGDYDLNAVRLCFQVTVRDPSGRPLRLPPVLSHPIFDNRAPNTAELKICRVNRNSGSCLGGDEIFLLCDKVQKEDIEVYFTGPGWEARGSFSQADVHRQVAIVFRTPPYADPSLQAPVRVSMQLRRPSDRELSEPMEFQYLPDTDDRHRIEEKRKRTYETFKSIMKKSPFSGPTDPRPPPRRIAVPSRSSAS

B1: His-p65-C ([…]) (domain or fragment)
chain: not shown
On to B1, for which the binding result is recorded as “binds”.
